Out of some 3,200 compounds screened, about 300 (9.4%) showed activity. Only a part is listed here, and it is no random draw.
Test system: A673/TR/shEF
Experiment: cell viability (LOESS-normalised, relative to median of negative controls) (log2 ratio); higher = more viable cells (less compound effect), active = hit call of the paper (over 3 MAD below the median)
Details: treatment time: 72 h
Method in brief: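 A673/TR/shEF Ewing sarcoma cells (1,500 per well, 384-well plates) were grown with or without doxycycline to induce EWS-FLI1 shRNA knockdown, starting 24 h before compounds. Library compounds at two or more concentrations, with DMSO controls, were added for three days. Cell viability was read by CellTiter-Glo luminescence on an Envision reader, then LOESS-corrected per plate, divided by the median of negative controls and log2-transformed. Hits were wells at least three median absolute deviations from the median of all screened wells.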

[1] = 0.25 µM, library screen: screen2, EWS-FLI1 expression: high (no doxycycline)
[2] = 0.25 µM, library screen: screen2, EWS-FLI1 expression: low (doxycycline-induced shRNA knockdown)
[3] = 2.5 µM, library screen: screen2, EWS-FLI1 expression: high (no doxycycline)
[4] = 2.5 µM, library screen: screen2, EWS-FLI1 expression: low (doxycycline-induced shRNA knockdown)
[5] = 0.25 µM, library screen: screen1, EWS-FLI1 expression: high (no doxycycline)
[6] = 0.25 µM, library screen: screen1, EWS-FLI1 expression: low (doxycycline-induced shRNA knockdown)
[7] = 2.5 µM, library screen: screen1, EWS-FLI1 expression: high (no doxycycline)
[8] = 2.5 µM, library screen: screen1, EWS-FLI1 expression: low (doxycycline-induced shRNA knockdown)

Compound: COc1cc2c(CCNC(C)=O)c[nH]c2cc1O
- cell viability (log2) [1]: inactive: 0.151
- cell viability (log2) [2]: inactive: 0.0505
- cell viability (log2) [3]: inactive: 0.0559
- cell viability (log2) [4]: inactive: -0.0127

Compound: C[C@@H]1CC[C@@]2(OC1)O[C@H]1C[C@H]3[C@@H]4CC[C@H]5C[C@@H](O)CC[C@]5(C)[C@H]4CC[C@]3(C)[C@H]1[C@@H]2C
- cell viability (log2) [5]: inactive: 0.0465
- cell viability (log2) [6]: inactive: 0.154
- cell viability (log2) [7]: inactive: 0.0795
- cell viability (log2) [8]: inactive: 0.116

Compound: CC(=O)OC/C=C(C)/C=C/C=C(C)/C=C/C1=C(C)CCCC1(C)C
- cell viability (log2) [5]: inactive: 0.18
- cell viability (log2) [6]: inactive: 0.0819
- cell viability (log2) [7]: inactive: 0.143
- cell viability (log2) [8]: inactive: 0.0752

Compound: O=C1C(CC[S+]([O-])c2ccccc2)C(=O)N(c2ccccc2)N1c1ccccc1 (stereo unspecified)
- cell viability (log2) [5]: inactive: 0.123
- cell viability (log2) [6]: inactive: 0.158
- cell viability (log2) [7]: inactive: 0.184
- cell viability (log2) [8]: inactive: 0.139

Compound: O=C(c1cc(-c2ccccc2)nc2ccccc12)N1CCN(c2ccccc2)CC1
- cell viability (log2) [5]: inactive: 0.112
- cell viability (log2) [6]: inactive: 0.0402
- cell viability (log2) [7]: inactive: 0.113
- cell viability (log2) [8]: inactive: 0.188

Compound: COc1cc(C(=O)O)c2c(c1C)OC(=O)c1c(C)cc(O)c(C=O)c1O2
- cell viability (log2) [5]: inactive: 0.0519
- cell viability (log2) [6]: inactive: 0.109
- cell viability (log2) [7]: inactive: 0.00408
- cell viability (log2) [8]: inactive: 0.151

Compound: Cc1ccccc1/C=C/C1=NCCN1
- cell viability (log2) [1]: inactive: 0.0935
- cell viability (log2) [2]: inactive: 0.0996
- cell viability (log2) [3]: inactive: 0.108
- cell viability (log2) [4]: inactive: 0.0398

Compound: COc1cc(OC)c2c(=O)c(OC)c(-c3ccc(OC)c(OC)c3)oc2c1
- cell viability (log2) [5]: inactive: 0.019
- cell viability (log2) [6]: inactive: 0.0595
- cell viability (log2) [7]: inactive: 0.0902
- cell viability (log2) [8]: inactive: -0.0343

Compound: CCC(c1ccc(O)cc1)C(CC)c1ccc(O)cc1 (stereo unspecified)
- cell viability (log2) (0.025 µM, library screen: screen2, EWS-FLI1 expression: high (no doxycycline)): inactive: 0.0967
- cell viability (log2) (0.025 µM, library screen: screen2, EWS-FLI1 expression: low (doxycycline-induced shRNA knockdown)): inactive: 0.0512
- cell viability (log2) (0.103 µM, library screen: screen3, EWS-FLI1 expression: high (no doxycycline)): inactive: 0.0624
- cell viability (log2) (0.103 µM, library screen: screen3, EWS-FLI1 expression: low (doxycycline-induced shRNA knockdown)): inactive: 0.0579
- cell viability (log2) [5]: inactive: 0.175
- cell viability (log2) [6]: inactive: 0.195
- cell viability (log2) [1]: inactive: 0.0602
- cell viability (log2) [2]: inactive: 0.0273
- cell viability (log2) (0.308 µM, library screen: screen3, EWS-FLI1 expression: high (no doxycycline)): inactive: -0.0519
- cell viability (log2) (0.308 µM, library screen: screen3, EWS-FLI1 expression: low (doxycycline-induced shRNA knockdown)): inactive: -0.0221
- cell viability (log2) (0.926 µM, library screen: screen3, EWS-FLI1 expression: high (no doxycycline)): inactive: 0.046
- cell viability (log2) (0.926 µM, library screen: screen3, EWS-FLI1 expression: low (doxycycline-induced shRNA knockdown)): inactive: 0.0839
- cell viability (log2) [7]: inactive: 0.196
- cell viability (log2) [8]: inactive: 0.218
- cell viability (log2) [3]: inactive: 0.0973
- cell viability (log2) [4]: inactive: 0.0343
- cell viability (log2) (2.8 µM, library screen: screen3, EWS-FLI1 expression: high (no doxycycline)): inactive: -0.0191
- cell viability (log2) (2.8 µM, library screen: screen3, EWS-FLI1 expression: low (doxycycline-induced shRNA knockdown)): inactive: 0.0243
- cell viability (log2) (8.3 µM, library screen: screen3, EWS-FLI1 expression: high (no doxycycline)): inactive: -0.064
- cell viability (log2) (8.3 µM, library screen: screen3, EWS-FLI1 expression: low (doxycycline-induced shRNA knockdown)): inactive: 0.0359
- cell viability (log2) (25 µM, library screen: screen2, EWS-FLI1 expression: high (no doxycycline)): inactive: 0.0788
- cell viability (log2) (25 µM, library screen: screen2, EWS-FLI1 expression: low (doxycycline-induced shRNA knockdown)): inactive: 0.0603
- cell viability (log2) (25 µM, library screen: screen3, EWS-FLI1 expression: high (no doxycycline)): inactive: 0.0343
- cell viability (log2) (25 µM, library screen: screen3, EWS-FLI1 expression: low (doxycycline-induced shRNA knockdown)): inactive: -0.0133

Compound: CC(C)[C@@H]1CC[C@@H](C)C[C@H]1O
- cell viability (log2) [5]: inactive: 0.0972
- cell viability (log2) [6]: inactive: 0.134
- cell viability (log2) [7]: inactive: 0.106
- cell viability (log2) [8]: inactive: 0.157

Compound: COc1ccc(CCN(C)CCc2ccc(OC)c(OC)c2)cc1OC
- cell viability (log2) [1]: inactive: 0.187
- cell viability (log2) [2]: inactive: 0.0366
- cell viability (log2) [3]: inactive: 0.198
- cell viability (log2) [4]: inactive: 0.0294

Compound: CC[N+](CC)(CC)CC
- cell viability (log2) [1]: inactive: 0.151
- cell viability (log2) [2]: inactive: 0.0491
- cell viability (log2) [3]: inactive: 0.135
- cell viability (log2) [4]: inactive: 0.00996

Compound: CC[C@@]1(O)C(=O)OCc2c1cc1n(c2=O)Cc2cc3cc(O)ccc3nc2-1
- cell viability (log2) [5]: active: -1.78
- cell viability (log2) [6]: active: -0.267
- cell viability (log2) [7]: active: -4.23
- cell viability (log2) [8]: active: -1.06

Compound: O=c1c(O)c(-c2cc(O)c(O)c(O)c2)oc2cc(O)ccc12
- cell viability (log2) [5]: inactive: 0.128
- cell viability (log2) [6]: inactive: -0.0317
- cell viability (log2) [7]: inactive: 0.0648
- cell viability (log2) [8]: inactive: 0.111
